Some of the results follow.

The text below walks through data of PMC12136788.

B1: ENSG00000136451:be:win_1101|CDS|ENSG00000136451|bound_else_gene|NA|bound_elsewhere_windowed (ssRNA)
RNA: GGGAGUUCUACAGUCCGACGAUCGAGACUGUGGGAAGAAGCUGUUAAAGCAAGGAAGAAAGAAGCUGCUAACCUGUGCCAAACCUCCACGGCUGCUACGACACCUGUGACUCUCACUACUCCAUUCAGUAUAACAUCCUCUGUCAACAGAGGAUUGAGCAUCA
B2: chr8:97276997:97277102:-|CDS|ENSG00000180543|unk|total|mutant (ssRNA)
RNA: GGGAGUUCUACAGUCCGACGAUCAUCCCGGGCUUCUGGGGGCAAGCAUUUCAGAACCAUCCCCAGCCCGCAUCCUUUCUGAACCGCCAAGAGAAAGAGGUACUGAGCUACUUAAACAGCUUGGAAGUGGAAGAGCUCGGCCUUCAACAGAGGAUUGAGCAUCA
B3: chr10:123166816:123166917:+|3pUTR|ENSG00000154473|unk|FALSE|unique (ssRNA)
RNA: GGGAGUUCUACAGUCCGACGAUCAAAAACUUAAAGGUAUAUUAGCAGGUUAGCCUUUGUUCUGUGGGAGAUCCAGGCCUUGUUAGAAGGACCAAGGCCAGAAUGCCCAGUUUAGCCUUAGCAUUCAAACCCUUCAUUGUUUUUCAACAGAGGAUUGAGCAUCA
B4: chr7:36452941:36453042:+|3pUTR|ENSG00000011426|msi1|FALSE|unique (ssRNA)
RNA: GGGAGUUCUACAGUCCGACGAUCGUCUUGAAGCAGCAACGUCUUUCAGGGGUUGGAGACAGAAACCCAUUCUCCAAUCUCAGUAGUUUUUUCGAAAGGCUGUGAUCAUUUAUUGAUCGUGAUAUGACUUGUUACUAGGGUACUCAACAGAGGAUUGAGCAUCA
B5: chr5:147393764:147393895:-|3pUTR|ENSG00000113657|msi1_unk|FALSE|overlapping (ssRNA)
RNA: GGGAGUUCUACAGUCCGACGAUCUCCAAUGUUACGCUCGCUUGCCUAGCUUUACGAAUAUUGCUUUGUUUUCUGUUUAUGCAUAGCCUUGAUUUGUUUGACUCCCCUCCCCCCAUUUACAUGCAUGCAAUCAGACAGGCCACUCAACAGAGGAUUGAGCAUCA
B6: chr19:42297191:42297292:-|CDS|ENSG00000079462|unk|FALSE|unique (ssRNA)
RNA: GGGAGUUCUACAGUCCGACGAUCCCGACAGGUGAACGAGCUGGUACGGGCGGCACUGGCUGGCCACCCUCGGGCCCACUUCCUAGAUGCCGACCCUGGCUUUGUGCACUCAGAUGGCACCAUCAGCCAUCAUGACAUGUAUGACAACAGAGGAUUGAGCAUCA
B7: chr1:10178627:10178729:+|CDS|ENSG00000130939|unk|total|mutant (ssRNA)
RNA: GGGAGUUCUACAGUCCGACGAUCUAAGGAAUUGUUUGAAGAAGUUAUUUCAAAGAUGCGGAAGGCAGGGAUCAAAUCCACAACCGCAACCGAAAAAUUUAAGCUGCUCGCCGAGAAAGUGGAGGAGACCGUGGCCAAGAACGCCAACAGAGGAUUGAGCAUCA
B8: ENSG00000006715:stop:overlap|stop_codon|ENSG00000006715|stop_codon|NA|stop_codon (ssRNA)
RNA: GGGAGUUCUACAGUCCGACGAUCGCAACAUCUGCAGUGCUAAGAACCGUGGACCAGGAAGUGCAAUUUUGGAGAUGAAAAAAUAGCUCAUUUCUCCUUGUCAGUCUCCUUGUCACCACUCUUUUUGAGACUGUUUUUGCAACACAACAGAGGAUUGAGCAUCA
B9: chr10:80519475:80519574:+|3pUTR|ENSG00000108219|msi1_unk|total|mutant (ssRNA)
RNA: GGGAGUUCUACAGUCCGACGAUCAGUGUGGUGUAUACUGGUGGCUGUUGAUGAUGAUUUUUUUUUUUUUACACAAUUCUCUGCCGACCCGGAGAAGAAUGCUUGUGUUUUUCGGAAGUGUGAUGCUUCUCUUUGACUGCCAAACAACAGAGGAUUGAGCAUCA
B10: chr8:76983344:76983445:-|CDS|ENSG00000164751|msi1|total|mutant (ssRNA)
RNA: GGGAGUUCUACAGUCCGACGAUCAGCCACCAGUGGCAAAGAAUGCGCUCUAUGUGGAGAGUGGCCCACCAUGCCUCACACCACCGGAUGUGAGCAUAUUUUCUGUUAUUUCUGUGCUAAGAGCCGUUUCUUAUUUGACGUGUACAACAGAGGAUUGAGCAUCA
B11: ENSG00000143815:stop:overlap|stop_codon|ENSG00000143815|stop_codon|NA|stop_codon (ssRNA)
RNA: GGGAGUUCUACAGUCCGACGAUCGAUUGAUUGGAUGGGAACCUCGACAGGACUCCACAAUACAUUUAGUUGUUAUUCCUUCUUAGUCUUCUCUAGUCUAAUAGUUGUUUAGGCUUUCCUUGUCUCUCAUGACCUUGAUACUUUCAACAGAGGAUUGAGCAUCA
B12: chr6:11183581:11183682:-|3pUTR|ENSG00000111859|msi1|FALSE|unique (ssRNA)
RNA: GGGAGUUCUACAGUCCGACGAUCAAAACAAGAAUGCAUGAUCUCAGAGUGAUUAAAAAAAAAUCAGUGGAAAUAAAUGAUCAUAGAAGGUGCUUUUCAAAACAACUGCUAUUAUAAUUCUCAAAGUCCUACUCUGCCAAAAGACAACAGAGGAUUGAGCAUCA
B13: ENSG00000165476:stop:overlap|stop_codon|ENSG00000165476|stop_codon|NA|stop_codon (ssRNA)
RNA: GGGAGUUCUACAGUCCGACGAUCAAGAGGUGCGGUACGGGUCACUAAAAUACAAAGUGAAGAAACGACCACAAGUGUAUUUUUAGUCAUCUACACGUCAAAUAUCCCAAGACAGAUUAUGCUAAAUACAUCGACUUCAUCUUCCAACAGAGGAUUGAGCAUCA
B14: chr3:183812448:183812549:+|3pUTR|ENSG00000163872|msi1|total|mutant (ssRNA)
RNA: GGGAGUUCUACAGUCCGACGAUCUAUUGCAGGUAUCACAGCCUAAAGAAAUUAUCUUUUUGCAAAAGAAAUAUUAAAUGAUUCCGCAGUCUCCACGUGUGUUAAUGUUUCAAACGUGUAUCAUAAUGUGUAUAAUUGUGUAACCAACAGAGGAUUGAGCAUCA
B15: chr4:8867047:8867692:-|three_prime_utr|ENSG00000215612|control|control|control (ssRNA)
RNA: GGGAGUUCUACAGUCCGACGAUCGACCCUGUGGACCUGUGUGGACGCGCGAUUCAGCGGCAGGCGCAGGGCUCAGGGGGCGUUAGGGAAGGGAUGGUCGCUCCUGCGGCCUCCUAGAUACCUCGGGAGCGCAGGCCGCGGCCGCAACAGAGGAUUGAGCAUCA
B16: chr21:36896991:36897096:-|CDS|ENSG00000159267|unk|total|mutant (ssRNA)
RNA: GGGAGUUCUACAGUCCGACGAUCCAGUGGCUUGGGAAACAUGUGGACUCCGAGGGAGAAAUAAAAUCCGGCCAGCUCUCUCUCCGAUUUGUUUCAUCCUACGUGUCUGAAGCCGAAAUAACCCCAUCUUGUAUACCUGUGGUGCAACAGAGGAUUGAGCAUCA
B17: chr3:168010103:168010202:-|3pUTR|ENSG00000173905|msi1_unk|total|mutant (ssRNA)
RNA: GGGAGUUCUACAGUCCGACGAUCGCUCAAACAUAAAUCUGCCUACUGAACUCCCGGAUAUUUAAUUACAAAAAUUAAGAACUCCGACUUUUUUAAAACUUUUGUAUCCGAAAUGCGCAUACAUUUAUAUGAAUAUAUUUUGAUCAACAGAGGAUUGAGCAUCA
B18: chr1:169690664:169691783:-|three_prime_utr|ENSG00000188404|control|control|control (ssRNA)
RNA: GGGAGUUCUACAGUCCGACGAUCAGUUUUCUUGCAGAUCAAAUUUCACGUCGUCUUCUGUAUACUGUGGAGGUACACUCUUAUAGAAAGUUCAAAAAGUCUACGCUCUCCUUUCUUUCUAACUCCAGUGAAGUAAUGGGGUCCCAACAGAGGAUUGAGCAUCA
B19: chr1:40238196:40238297:+|CDS|ENSG00000117000|msi1|FALSE|unique (ssRNA)
RNA: GGGAGUUCUACAGUCCGACGAUCCGGUAUUCCCCAUUUCAGUGUCAUAUUUGCCAAAGGUCAUUUACAAGAAAAACACACCUUAGGAUUCAUUAUAAAAAUAAACAUCAAAUUGGCAGUGACAGAGCAACUCACAAACUAUUACAACAGAGGAUUGAGCAUCA
B20: chr17:5346795:5346911:+|CDS|ENSG00000029725|unk|FALSE|unique (ssRNA)
RNA: GGGAGUUCUACAGUCCGACGAUCAGAACUGAAUCAUUAUCUGGAAGCUGAGAAAUCUUGUAGGACUGAUCUAGAGAUGUAUGUAGCUGUUUUGAAUACUCAGAAAUCUGUUCUACAGGAAGAUGCUGAGAAACUGCGGAAAGACAACAGAGGAUUGAGCAUCA
B21: chr5:181194513:181194614:-|3pUTR|ENSG00000146054|unk|total|mutant (ssRNA)
RNA: GGGAGUUCUACAGUCCGACGAUCUCUUUGAGUGACAAGCCCGGGACAACAGCCAGUGGGCAUCACGGCUCUCCAGCACUCCUCCGCCGGAGGAUACAGAGUGAUGGGUGCAUCCUGACCAAUGCGACAACCAACACGUGCUCUCAACAGAGGAUUGAGCAUCA
B22: chr8:17753977:17754079:-|CDS|ENSG00000129422|unk|total|mutant (ssRNA)
RNA: GGGAGUUCUACAGUCCGACGAUCAAAAAAGCAGAAAUUCUAAUUAACAAGACACAUAAGCAGCAGUUUAAUAAACUCAUUACCCGCCAGGCUGUGCAUGUUACAACUCAUUCUAAAAAUGCUUCACACAGGGUUCCAAGAACACAACAGAGGAUUGAGCAUCA

The target in the assay is MSI1 full-length (mouse, UniProt Q61474 1-362). The assay can be described thus: nsRBNS (natural sequence RNA bind-n-seq); RBNS binding buffer (assumed for nsRBNS): 25 mM Tris pH 7.5, 150 mM KCl, 3 mM MgCl2, 0.01% Triton X-100, 500 ug/ml BSA, 20 U/ml SUPERase-In, 4 C; UNK is unkempt and MSI1 is Musashi-1; names of the RNAs are library labels; protein concentration not given here; high values mean tight binding.
UniProt Q61474, sequence (Q61474 whole entry): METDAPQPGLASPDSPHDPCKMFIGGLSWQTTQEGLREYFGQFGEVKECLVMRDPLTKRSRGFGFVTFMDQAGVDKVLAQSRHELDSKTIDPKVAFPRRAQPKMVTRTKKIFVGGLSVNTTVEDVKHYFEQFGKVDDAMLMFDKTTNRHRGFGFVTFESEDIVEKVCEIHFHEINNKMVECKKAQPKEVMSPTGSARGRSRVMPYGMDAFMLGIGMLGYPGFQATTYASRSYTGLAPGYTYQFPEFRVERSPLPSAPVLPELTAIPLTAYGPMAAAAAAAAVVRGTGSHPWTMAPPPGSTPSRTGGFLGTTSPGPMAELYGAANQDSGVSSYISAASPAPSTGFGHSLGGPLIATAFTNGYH
As to B1, the binding signal was 0.715 enrichment R. Next, B2: 0.325 enrichment R. Next, B3: 5.77 enrichment R. The result for B4 reads 1.29 enrichment R; that for B5, 0.623 enrichment R; that for B6, 0.323 enrichment R.

B7: the binding signal amounted to 0.449 enrichment R. Next, B8: 0.498 enrichment R; B9: 0.356 enrichment R. The result for B10 reads 0.344 enrichment R; that for B11, 0.398 enrichment R; that for B12, 0.369 enrichment R. Consider B13, for which the binding signal came to 1.14 enrichment R. Regarding B14, the binding signal is 0.427 enrichment R. Next, B15: 0.389 enrichment R; B16: 0.447 enrichment R. Next, B17: 1.09 enrichment R.

B18: the binding signal was 0.432 enrichment R. Next, B19: 1.79 enrichment R. The result for B20 reads 2.42 enrichment R; that for B21, 0.305 enrichment R; that for B22, 0.596 enrichment R.
